The source of these data is the supplement of paper PMC8948288.

The subject of one series is GL261. Put plainly: cell viability relative to siNT1 (ATP content); H4 human neuroglioma and GL261 mouse glioma; higher = less toxic. Conditions: siRNA concentration 25 nM; 96 h; mouse.
For another series, the system named is H4. Described as above. The settings on record: siRNA concentration 10 nM; 96 h; human.

Shown are siRNA guide strands that differ only in the seed, positions 2 to 7.
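Note: cells reverse transfected with siRNA duplexes via lipid reagent, ATP read by luminescence, triplicate wells, values scaled to mean viability with non-targeting control siNT1.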

For UUAAGUCACAUGUAAACCA, the values for the cell viability with GL261 and in the series with H4 were 25.2% and 65.5%, respectively.
The like results for UUAAGUGACAUGUAAACCA were, in that order, 58.6% and 37.3%.
The like results for UUAAGUUACAUGUAAACCA were, in that order, 35.9% and 61%.
The like results for UUAAUAAACAUGUAAACCA were, in that order, 54.5% and 109%.
As for UUAAUACACAUGUAAACCA, the cell viability amounted to 55.3% in the series with GL261 and 86.9% with H4.
The like results for UUAAUAGACAUGUAAACCA were, in that order, 46.3% and 101%.
The like results for UUAAUAUACAUGUAAACCA were, in that order, 51.1% and 99.9%.
As to UUAAUCAACAUGUAAACCA, the results for the cell viability with GL261 and in the series on H4 were 46.4% and 108%, respectively.
The like results for UUAAUCCACAUGUAAACCA were, in that order, 38.4% and 27%.
The like results for UUAAUCGACAUGUAAACCA were, in that order, 45.2% and 113%.
The like results for UUAAUCUACAUGUAAACCA were, in that order, 53.3% and 91.2%.
Turning to UUAAUGAACAUGUAAACCA, the cell viability in the series with GL261 was 55.5%; with H4, 80.7%.
The like results for UUAAUGCACAUGUAAACCA were, in that order, 14.9% and 71.3%.
The like results for UUAAUGGACAUGUAAACCA were, in that order, 44.9% and 46.8%.
The like results for UUAAUGUACAUGUAAACCA were, in that order, 31.5% and 78.3%.
Consider UUAAUUAACAUGUAAACCA, for which the results for the cell viability in the series on GL261 and in the series on H4 were 66.4% and 100%, respectively.
The like results for UUAAUUCACAUGUAAACCA were, in that order, 37.8% and 68.2%.
The like results for UUAAUUGACAUGUAAACCA were, in that order, 74.1% and 83.2%.
Consider UUAAUUUACAUGUAAACCA, for which the cell viability turned out to be 44% with GL261 and 113% with H4.
The like results for UUACAAAACAUGUAAACCA were, in that order, 79.2% and 81%.
The like results for UUACAACACAUGUAAACCA were, in that order, 68.9% and 86.1%.
The like results for UUACAAGACAUGUAAACCA were, in that order, 74.7% and 74.4%.
As for UUACAAUACAUGUAAACCA, the cell viability in the series on GL261 was found to be 47.2%; with H4, 89.1%.
The like results for UUACACAACAUGUAAACCA were, in that order, 54.1% and 83.9%.
For the sequence UUACACCACAUGUAAACCA, the cell viability in the series on GL261 was 30.6%; in the series on H4, 16.3%.
The like results for UUACACGACAUGUAAACCA were, in that order, 48.6% and 104%.
The like results for UUACACUACAUGUAAACCA were, in that order, 49.9% and 65.8%.
The like results for UUACAGAACAUGUAAACCA were, in that order, 45.7% and 92.6%.
As to UUACAGCACAUGUAAACCA, the cell viability with GL261 came to 36.6%; in the series with H4, 57.8%.
Regarding UUACAGGACAUGUAAACCA, the cell viability in the series with GL261 worked out at 45.3%; in the series on H4, 54.8%.
The like results for UUACAGUACAUGUAAACCA were, in that order, 43.1% and 72.9%.
The like results for UUACAUAACAUGUAAACCA were, in that order, 63% and 82.2%.
The like results for UUACAUCACAUGUAAACCA were, in that order, 36.9% and 64.6%.
In the case of UUACAUGACAUGUAAACCA, the results for the cell viability in the series on GL261 and with H4 were 54% and 74.9%, respectively.
For UUACAUUACAUGUAAACCA, the cell viability came to 71.5% in the series on GL261 and 99.5% with H4.
The like results for UUACCAAACAUGUAAACCA were, in that order, 48.4% and 73.6%.
As to UUACCACACAUGUAAACCA, the cell viability with GL261 worked out at 78.1%; in the series on H4, 62.1%.
The like results for UUACCAGACAUGUAAACCA were, in that order, 43.9% and 55.1%.
The like results for UUACCAUACAUGUAAACCA were, in that order, 55.2% and 42.9%.
The like results for UUACCCAACAUGUAAACCA were, in that order, 44.9% and 55.3%.
Turning to UUACCCCACAUGUAAACCA, the cell viability was 37.8% in the series with GL261 and 18.1% in the series with H4.
The like results for UUACCCGACAUGUAAACCA were, in that order, 66.5% and 68.3%.
On to UUACCCUACAUGUAAACCA, for which the cell viability in the series on GL261 is 33.5%; in the series with H4, 38.4%.
The like results for UUACCGAACAUGUAAACCA were, in that order, 74.7% and 78.7%.
As for UUACCGCACAUGUAAACCA, the cell viability came out at 40.2% with GL261 and 58.9% with H4.
Consider UUACCGGACAUGUAAACCA, for which the cell viability in the series with GL261 was determined as 54.1%; in the series on H4, 79.4%.
The like results for UUACCGUACAUGUAAACCA were, in that order, 58.1% and 95.3%.
The like results for UUACCUAACAUGUAAACCA were, in that order, 81.9% and 76%.
The like results for UUACCUCACAUGUAAACCA were, in that order, 30% and 47.4%.
As to UUACCUGACAUGUAAACCA, the cell viability came to 86.5% with GL261 and 62.5% in the series with H4.
As for UUACCUUACAUGUAAACCA, the cell viability with GL261 is 58.6%; in the series with H4, 60.8%.
The like results for UUACGAAACAUGUAAACCA were, in that order, 68.5% and 96.9%.
The like results for UUACGACACAUGUAAACCA were, in that order, 38.4% and 57.5%.
The like results for UUACGAGACAUGUAAACCA were, in that order, 57.7% and 75.6%.
On to UUACGAUACAUGUAAACCA, for which the cell viability in the series with GL261 stood at 64%; in the series with H4, 74.5%.
The like results for UUACGCAACAUGUAAACCA were, in that order, 63.8% and 90.2%.
The like results for UUACGCCACAUGUAAACCA were, in that order, 42.4% and 67.5%.
The like results for UUACGCGACAUGUAAACCA were, in that order, 57.4% and 95.1%.
Take UUACGCUACAUGUAAACCA: the cell viability was found to be 65.9% in the series with GL261 and 95.4% in the series on H4.
For the sequence UUACGGAACAUGUAAACCA, the cell viability with GL261 stood at 53.9%; with H4, 87.4%.
The like results for UUACGGCACAUGUAAACCA were, in that order, 41.5% and 50.1%.
The like results for UUACGGGACAUGUAAACCA were, in that order, 75.1% and 43.6%.
The like results for UUACGGUACAUGUAAACCA were, in that order, 38.1% and 61.8%.
Take UUACGUAACAUGUAAACCA: the cell viability in the series on GL261 was 63.6%; in the series on H4, 84.9%.
The like results for UUACGUCACAUGUAAACCA were, in that order, 77.7% and 65.2%.
